Data from PubChem BioAssay AID504832 (National Center for Advancing Translational Sciences (NCATS), 2011).
The campaign covered roughly 310,000 compounds. About 18,000 (5.8%) were called active. This list was built around the results that the source calls inconclusive (neither active nor inactive); the mix of calls is not that of the screen. The call rests on the fitted dose curve; in most records, active means well fitted inhibition curve with a large enough effect; inconclusive means small, poorly fitted or top-dose-only effect, or another doubt; inactive means no such curve, though single readings can be large or run the other way. No potency is given beside an inconclusive call; the fits are too rough.

experiment: Primary qHTS for delayed death inhibitors of the malarial parasite plastid, 48 hour incubation; details: P. falciparum luciferase growth in erythrocytes; series mostly up to 28.7 µM
Method in brief: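 Parasite viability was followed by luminescence of a genomically integrated firefly luciferase. Cultures held 0.1% parasitemia at 2% hematocrit (final), incubated under 5% CO2 at 37 C.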
Potency means the concentration at half of the fitted maximal effect; tags describe the fitted curve by direction and shape.

Row | Compound | Potency
1 | CCOC(=O)Cn1c2ccccc2c2nc(C)sc21 | inactive
2 | COc1ccc(OC)c(-n2nnnc2SCC(=O)Nc2ccc(C(=O)N3CCCCC3)cc2)c1 | inconclusive [inhibitor, single point]
3 | O=C(NC(=S)NCC1CCCO1)c1ccc(Cl)cc1Cl (centres undefined) | inactive
4 | COc1ccc(-c2c(C)oc3c(CN4CCOCC4)c(O)ccc3c2=O)cc1 | inconclusive [inhibitor, partial curve, poor fit]
5 | Cc1cc(-c2ccccc2)nc(N(C)N)c1S(C)(=O)=O | inconclusive [inhibitor, full curve, poor fit]
6 | O=C1NNC(c2ccccc2)=N/C1=C\c1ccccc1Cl | inconclusive [inhibitor, single point]
7 | Cc1cc(/C=N/Nc2nc(N3CCOCC3)nc(N3CCOCC3)n2)c(C)n1-c1ccccc1 | active: 9.28 µM
8 | NS(=O)(=O)c1ccc(CCNC(=O)COC(=O)C2CCC2)cc1 | inactive
9 | CCOC(=O)[C@H]1[C@H]2COc3ccc(Br)cc3[C@@H]2N2C(=O)c3ccc(C)cc3NC(=O)[C@@]12C | inconclusive [inhibitor, single point]
10 | COC(=O)c1cc(NC(=O)C2CCCN(S(=O)(=O)c3c(C)n[nH]c3C)C2)cc(C(=O)OC)c1 (centres undefined) | inconclusive [inhibitor, partial curve, poor fit]
11 | CC(C)N(Cc1ccco1)/N=C/c1c(O)n(Cc2ccccc2)c(=O)[nH]c1=O | inconclusive [inhibitor, single point]
12 | COc1cc(S(=O)(=O)N(C)C)ccc1Br | inactive
13 | CC(=O)NNC(=S)NC(=O)C(c1ccccc1)c1ccccc1 | active: 2.08 µM
14 | COC(=O)CCCC1=CC2=C(c3ccccc3)C(=O)C(C)(OC(=O)C3CCCC3)C(=O)C2=CN1CCc1c[nH]c2ccccc12 (centres undefined) | inconclusive [inhibitor, partial curve]
15 | COCCCN(C(=O)CCSc1ccc(F)cc1)c1c(N)n(Cc2ccccc2)c(=O)[nH]c1=O | active: 11.7 µM
16 | Cc1ccc(-c2nc(CN(CC3CCC3)CC3CCCO3)c(C)o2)s1 (centres undefined) | inconclusive [inhibitor, partial curve]
17 | CCOC(=O)CNc1nc2ccccc2n2c(C)nnc12 | inconclusive [inhibitor, single point]
18 | Cc1cccc(OC2(c3ccccc3)OC(=O)c3ccccc32)c1C (centres undefined) | inconclusive [inhibitor, single point]
19 | C#CCOCCOCCOCCNc1nc(N2CCN(C(=O)Cn3cc(CCCN=C(N)N)nn3)CC2)nc(N2CCN(C(=O)Cn3cc(CCCN=C(N)N)nn3)CC2)n1 | inconclusive [inhibitor, full curve]
20 | Cc1cc(C)cc(OCC(=O)Nc2nc(-c3cccnc3)cs2)c1 | inconclusive [inhibitor, single point]
21 | C/C(=N\OCC(=O)OCC(=O)Nc1cc(S(C)(=O)=O)ccc1Cl)c1ccc2c(c1)OCO2 | inactive
22 | O=C(NCCN1CCOCC1)c1ccc(/C=C2\Sc3ccccc3N(Cc3ccccc3F)C2=O)cc1 | inconclusive [inhibitor, partial curve, poor fit]
23 | O=C(Nc1ccccc1N1CCN(C(=O)c2ccccc2)CC1)c1cc(Br)ccc1Cl | inconclusive [inhibitor, partial curve, poor fit]

Row | Compound | Potency
24 | COc1ccc(Nc2nc(NCC3CCCO3)c3ccccc3n2)c(OC)c1 (centres undefined) | inconclusive [inhibitor, full curve]
25 | COc1ccc(C(CNC(=O)CSc2ccccc2C)N(C)C)cc1 (centres undefined) | inconclusive [inhibitor, single point]
26 | Cc1ccc2nc(SC(C(=O)Nc3ccc(F)cc3)c3ccccc3)[nH]c2c1 (centres undefined) | inconclusive [inhibitor, partial curve, poor fit]
27 | O=C(COc1coc(CN2CCN(c3ccccc3F)CC2)cc1=O)NC1CCCCC1 | inconclusive [inhibitor, single point]
28 | CCC(=O)c1c[nH]c(C(=O)NCc2ccco2)c1 | inactive
29 | COC(=O)c1cc(Cl)c(NC(=O)Cc2ccccc2)cc1OC | inactive
30 | CCOc1ccc(N(CC(=O)Nc2ccc(C)cc2C)S(C)(=O)=O)cc1 | inconclusive [inhibitor, partial curve, poor fit]
31 | NC(=O)c1ccsc1NC(=O)CCS(=O)(=O)c1ccc(F)cc1 | inconclusive [inhibitor, single point]
32 | COc1ccc(C(=O)NC(=S)Nc2ccc3oc(=O)ccc3c2)cc1[N+](=O)[O-] | inconclusive [inhibitor, partial curve, poor fit]
33 | Cc1nn2c(C(F)(F)F)c3c(nc2c1-c1ccccc1)CCC3 | inactive
34 | O=C(NCC1CCCO1)C1CCN(C2CCN(CCCC3CCCC3)CC2)CC1 (centres undefined) | inconclusive [inhibitor, single point]
35 | CCOc1ccc(Cn2nnc(-c3ccc(S(C)(=O)=O)cc3)n2)cc1OCC | inconclusive [inhibitor, partial curve]
36 | COc1cc(CCCN2C(N)=NC[C@@H]2Cc2ccccc2)cc(OC)c1OC | active: 9.28 µM
37 | Cc1cc(C)c(NS(=O)(=O)c2ccc(NC(=O)/C=C/C(=O)O)cc2)c(C)c1 | inconclusive [inhibitor, single point]
38 | N#Cc1nc(-c2cccc(Cl)c2)oc1N1CCC(C(N)=O)CC1 | inconclusive [inhibitor, full curve]
39 | CCOc1cc(C2C(C#N)=C(N)SC(N)=C2C#N)ccc1OCCN1CCOCC1 | active: 9.28 µM
40 | O=C(Nc1ccc2c(c1)OCCO2)c1cccc(S(=O)(=O)N2CCCCC2)c1 | inactive
41 | CC(NC(=O)CN1C(=O)NC(c2ccccc2)(c2ccccc2)C1=O)c1cccs1 (centres undefined) | inconclusive [inhibitor, single point]
42 | COc1ccc(OC)c2sc(N3CCN(C(=O)c4ccc([N+](=O)[O-])s4)CC3)nc12 | inconclusive [inhibitor, single point]
43 | CCOc1ccc(NC(=O)CSc2nc(=O)n(CCCN3CCOCC3)c3c2CCC3)cc1 | inconclusive [inhibitor, single point]
44 | Cc1c(C=O)c2ccccc2n1CCOc1ccccc1 | inconclusive [inhibitor, full curve, poor fit]
45 | CCOC(=O)N1CCC2(CC1)C(C#N)=C(N)Oc1c2sc2nc(C)cc(C)c12 | inconclusive [inhibitor, single point]
46 | CCCCNC(=O)OCCNC(=O)NC | inactive

Row | Compound | Potency
47 | CC1(C)CC(=O)c2c(noc2-c2ccccc2)C1 | inconclusive [inhibitor, full curve, poor fit]
48 | COc1ccccc1NC(=O)CSc1nc2ccccc2c(=O)n1CCNC(C)=O | inconclusive [inhibitor, single point]
49 | C/C(=N/NC(=O)CN(c1ccccc1)S(=O)(=O)c1ccccc1)c1ccccc1O | inconclusive [inhibitor, partial curve, poor fit]
50 | O=C(c1ccc(Cl)cc1)c1ccc(CN2C(=O)c3ccccc3C2=O)o1 | inactive
51 | O=C(NC(Cc1c[nH]c2ccccc12)C(=O)N/N=C/c1cccnc1)c1cccs1 (centres undefined) | inactive
52 | COc1cc(/C(C)=C/c2ccccc2)c2c(c1)oc1ccccc12 | inactive
53 | CCOc1cc(CNc2ccc3c(c2)OCCO3)cc(Br)c1OCC(N)=O | inconclusive [inhibitor, single point]
54 | COc1cccc(C(=O)COC(=O)COc2c(C)cc(C)cc2C)c1 | inactive
55 | CC/C(=N\n1nnnc1Nc1ccccc1)c1ccccc1 | active: 10.4 µM
56 | COc1ccc(COc2cc(-c3cccc(OC)c3)nc3ccc(NC(=O)c4ccc(C)cc4)cc23)cc1 | inconclusive [inhibitor, full curve]
57 | Cc1cc(C(=O)N2CCN(S(=O)(=O)c3ccc(C)c(C)c3)CC2)no1 | inactive
58 | COc1ccc(Cn2c(O)c(C=Nc3ccc(C)cc3)c3ccccc3c2=O)cc1 | inactive
59 | COc1ccc(CNC(=O)Cn2nc([N+](=O)[O-])c(Br)c2C)cc1OC | inconclusive [inhibitor, single point]
60 | COc1ccc(N2CC(C(=O)Nc3ccc(S(=O)(=O)N4CCCCC4)cc3)CC2=O)cc1 (centres undefined) | inconclusive [inhibitor, single point]
61 | CCOC(=O)N1CCN(C(=O)Nc2sc3nc4n(c(=O)c3c2C)CCC(C)CC4)CC1 (centres undefined) | active: 11.7 µM
62 | C=CCN1C(=O)c2cccc3c(Br)ccc(c23)C1=O | inactive
63 | COC(=O)c1cccc(N(C(=O)c2cnccn2)C(C(=O)NC2CCCCC2)c2cn(C)nc2C)c1 (centres undefined) | inactive
64 | Cc1occc1-c1nc(-c2ccncc2)no1 | inactive
65 | CC(C)Sc1cc(N2CCCC2)nc(-c2ccc(F)cc2)n1 | active: 13.1 µM
66 | Cc1ccc(C)c(S(=O)(=O)N2CCN(C(=O)CCc3nc4ccccc4c(=O)[nH]3)CC2)c1 | inconclusive [inhibitor, partial curve]
67 | COc1cc(OC)c2c(-c3ccccc3)cc(=O)oc2c1C(CCN1CCN(c2ccccc2)CC1)c1ccc(N(C)C)cc1 (centres undefined) | active: 5.22 µM
68 | COCCCNC(=O)CCn1c(=O)c2ccccc2n(CC(=O)Nc2cc(Cl)ccc2C)c1=O | inactive
69 | Cc1ccc(C(=O)CSc2n[nH]c(C)n2)cc1 | inactive
